From the supplement of paper PMC8728848
This is one part of the list.

Experiments:
Assay in all cases: glycan array binding signal (z-score within array); higher = stronger binding
Conditions in all cases: glycan notation: IUPAC condensed, linker removed
[1] = molecular target: Neu5Ac(a2-3)Gal(b1-3)[Neu5Ac(a2-6)]GlcNAc(b1-3)[Fuc(a1-3)[Gal(b1-4)]GlcNAc(b1-6)]Gal(b1-4)Glc
Summary of the method: (§1)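 The Consortium for Functional Glycomics database supplied 3228 glycan arrays, of which those lacking an available protein sequence were dropped. The binding signal, a within-array Z-score, was averaged across arrays of the same protein sequence and across linkers. Negative scores can be read as non-binding.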

[2] = molecular target: Neu5Ac(a2-3)Gal(b1-3)]Neu5Ac(a2-3)Gal(b1-4)]GlcNAc
Summary of the method: as §1

Neu5Ac(a2-3)Gal(b1-4)Glc = molecular target: Neu5Ac(a2-3)Gal(b1-4)Glc
Summary of the method: as §1

[3] = molecular target: Neu5Ac(a2-3)Gal(b1-4)GlcNAc
Summary of the method: as §1

[4] = molecular target: Neu5Ac(a2-3)Gal(b1-4)GlcNAc(b1-2)Man
Summary of the method: as §1

[5] = molecular target: Neu5Ac(a2-3)Gal(b1-4)GlcNAc(b1-2)Man(a1-3)[GlcNAc(b1-4)][Neu5Ac(a2-3)Gal(b1-4)GlcNAc(b1-2)Man(a1-6)]Man(b1-4)GlcNAc(b1-4)GlcNAc
Summary of the method: as §1

[6] = molecular target: Neu5Ac(a2-3)Gal(b1-4)GlcNAc(b1-2)Man(a1-3)[Neu5Ac(a2-3)Gal(b1-4)GlcNAc(b1-2)Man(a1-6)]Man(b1-4)GlcNAc(b1-4)GlcNAc
Summary of the method: as §1

[7] = molecular target: Neu5Ac(a2-3)Gal(b1-4)GlcNAc(b1-2)Man(a1-3)[Neu5Ac(a2-3)Gal(b1-4)GlcNAc(b1-2)Man(a1-6)]Man(b1-4)GlcNAc(b1-4)[Fuc(a1-6)]GlcNAc
Summary of the method: as §1

[8] = molecular target: Neu5Ac(a2-3)Gal(b1-4)GlcNAc(b1-2)Man(a1-3)[Neu5Ac(a2-6)Gal(b1-4)GlcNAc(b1-2)Man(a1-6)]Man(b1-4)GlcNAc(b1-4)GlcNAc
Summary of the method: as §1

[9] = molecular target: Neu5Ac(a2-3)Gal(b1-4)GlcNAc(b1-2)[Neu5Ac(a2-3)Gal(b1-4)GlcNAc(b1-4)]Man(a1-3)[GlcNAc(b1-4)][Neu5Ac(a2-3)Gal(b1-4)GlcNAc(b1-2)[Neu5Ac(a2-3)Gal(b1-4)GlcNAc(b1-6)]Man(a1-6)]Man(b1-4)GlcNAc(b1-4)GlcNAc
Summary of the method: as §1

[10] = molecular target: Neu5Ac(a2-3)Gal(b1-4)GlcNAc(b1-2)[Neu5Ac(a2-3)Gal(b1-4)GlcNAc(b1-4)]Man(a1-3)[GlcNAc(b1-4)][Neu5Ac(a2-3)Gal(b1-4)GlcNAc(b1-4)Man(a1-6)]Man(b1-4)GlcNAc(b1-4)GlcNAc
Summary of the method: as §1

[11] = molecular target: Neu5Ac(a2-3)Gal(b1-4)GlcNAc(b1-2)[Neu5Ac(a2-3)Gal(b1-4)GlcNAc(b1-6)]Man(a1-6)[Neu5Ac(a2-3)Gal(b1-4)GlcNAc(b1-2)Man(a1-3)][GlcNAc(b1-4)]Man(b1-4)GlcNAc(b1-4)GlcNAc
Summary of the method: as §1

[12] = molecular target: Neu5Ac(a2-3)Gal(b1-4)GlcNAc(b1-3)Gal
Summary of the method: as §1

[13] = molecular target: Neu5Ac(a2-3)Gal(b1-4)GlcNAc(b1-3)Gal(b1-3)GlcNAc
Summary of the method: as §1

[14] = molecular target: Neu5Ac(a2-3)Gal(b1-4)GlcNAc(b1-3)Gal(b1-4)GlcNAc
Summary of the method: as §1

[15] = molecular target: Neu5Ac(a2-3)Gal(b1-4)GlcNAc(b1-3)Gal(b1-4)GlcNAc(b1-2)Man(a1-3)[Neu5Ac(a2-3)Gal(b1-4)GlcNAc(b1-3)Gal(b1-4)GlcNAc(b1-2)Man(a1-6)]Man(b1-4)GlcNAc(b1-4)GlcNAc
Summary of the method: as §1

[16] = molecular target: Neu5Ac(a2-3)Gal(b1-4)GlcNAc(b1-3)Gal(b1-4)GlcNAc(b1-3)Gal(b1-4)GlcNAc
Summary of the method: as §1

[17] = molecular target: Neu5Ac(a2-3)Gal(b1-4)GlcNAc(b1-3)Gal(b1-4)GlcNAc(b1-3)Gal(b1-4)GlcNAc(b1-2)Man(a1-3)[Neu5Ac(a2-3)Gal(b1-4)GlcNAc(b1-3)Gal(b1-4)GlcNAc(b1-3)Gal(b1-4)GlcNAc(b1-2)Man(a1-6)]GalNAc
Summary of the method: as §1

[18] = molecular target: Neu5Ac(a2-3)Gal(b1-4)GlcNAc(b1-3)Gal(b1-4)GlcNAc(b1-3)GalNAc
Summary of the method: as §1

[19] = molecular target: Neu5Ac(a2-3)Gal(b1-4)GlcNAc(b1-3)Gal(b1-4)GlcNAc(b1-3)[Neu5Ac(a2-3)Gal(b1-4)GlcNAc(b1-3)Gal(b1-4)GlcNAc(b1-6)]GalNAc
Summary of the method: as §1

[20] = molecular target: Neu5Ac(a2-3)Gal(b1-4)GlcNAc(b1-3)Gal(b1-4)GlcNAc(b1-6)[Gal(b1-3)]GalNAc
Summary of the method: as §1

[21] = molecular target: Neu5Ac(a2-3)Gal(b1-4)GlcNAc(b1-3)Gal(b1-4)[Fuc(a1-3)]GlcNAc
Summary of the method: as §1

[22] = molecular target: Neu5Ac(a2-3)Gal(b1-4)GlcNAc(b1-3)GalNAc
Summary of the method: as §1

[23] = molecular target: Neu5Ac(a2-3)Gal(b1-4)GlcNAc(b1-3)[Neu5Ac(a2-3)Gal(b1-4)GlcNAc(b1-6)]GalNAc
Summary of the method: as §1

[24] = molecular target: Neu5Ac(a2-3)Gal(b1-4)GlcNAc(b1-6)GalNAc
Summary of the method: as §1

[25] = molecular target: Neu5Ac(a2-3)Gal(b1-4)GlcNAc(b1-6)[Gal(b1-3)]GalNAc
Summary of the method: as §1

[26] = molecular target: Neu5Ac(a2-3)Gal(b1-4)GlcNAc(b1-6)[Neu5Ac(a2-3)Gal(b1-3)]GalNAc
Summary of the method: as §1

[27] = molecular target: Neu5Ac(a2-3)Gal(b1-4)GlcNAc6S
Summary of the method: as §1

[28] = molecular target: Neu5Ac(a2-3)Gal(b1-4)[Fuc(a1-3)]GlcNAc
Summary of the method: as §1

[29] = molecular target: Neu5Ac(a2-3)Gal(b1-4)[Fuc(a1-3)]GlcNAc(b1-2)Man
Summary of the method: as §1

[30] = molecular target: Neu5Ac(a2-3)Gal(b1-4)[Fuc(a1-3)]GlcNAc(b1-3)Gal
Summary of the method: as §1

[31] = molecular target: Neu5Ac(a2-3)Gal(b1-4)[Fuc(a1-3)]GlcNAc(b1-3)Gal(b1-4)GlcNAc
Summary of the method: as §1

[32] = molecular target: Neu5Ac(a2-3)Gal(b1-4)[Fuc(a1-3)]GlcNAc(b1-3)Gal(b1-4)[Fuc(a1-3)]GlcNAc(b1-3)Gal(b1-4)[Fuc(a1-3)]GlcNAc
Summary of the method: as §1

[33] = molecular target: Neu5Ac(a2-3)Gal(b1-4)[Fuc(a1-3)]GlcNAc(b1-3)GalNAc
Summary of the method: as §1

[34] = molecular target: Neu5Ac(a2-3)Gal(b1-4)[Fuc(a1-3)]GlcNAc(b1-6)[Gal(b1-3)]GalNAc
Summary of the method: as §1

[35] = molecular target: Neu5Ac(a2-3)Gal(b1-4)[Fuc(a1-3)]GlcNAc(b1-6)[Neu5Ac(a2-3)Gal(b1-3)]GalNAc
Summary of the method: as §1

[36] = molecular target: Neu5Ac(a2-3)Gal(b1-4)[Fuc(a1-3)]GlcNAc6S
Summary of the method: as §1

[37] = molecular target: Neu5Ac(a2-3)Gal6S(b1-4)GlcNAc
Summary of the method: as §1

B1: Epa23 (Candida glabrata) (protein)
chain: MGSSHHHHHHSSGLVPRGSHMIPNPFEGTINNFPSGCSPNHGLYNRGLTMELYNYSYIHPQSIQSYFNTSTLKKMEKGQCWDPSYLDVNYPRTGYKTHNRFAKVNGIDGILDFEFNPTRSCVPSKGQLPQNYNYPLQFTLSNFTMLLYGYFKPKVTAKHTFTIFADDLLFLNFGAGNAFDCCQQQDTIDDFGNYQAYALWGSDTQQNTLTVNLDANIYYPIRMFYNNRDFKGALNMYFTTDESNTKINDFSGYLFNIPDSSEGCPAHISYETECGNVSG
[1]
  glycan array binding signal (z-score): -0.149
[2]
  glycan array binding signal (z-score): -0.258
Neu5Ac(a2-3)Gal(b1-4)Glc
  glycan array binding signal (z-score): -0.17
[3]
  glycan array binding signal (z-score): -0.194
[4]
  glycan array binding signal (z-score): -0.139
[5]
  glycan array binding signal (z-score): -0.24
[6]
  glycan array binding signal (z-score): -0.249
[7]
  glycan array binding signal (z-score): -0.163
[8]
  glycan array binding signal (z-score): -0.076
[9]
  glycan array binding signal (z-score): -0.227
[10]
  glycan array binding signal (z-score): -0.243
[11]
  glycan array binding signal (z-score): -0.268
[12]
  glycan array binding signal (z-score): -0.227
[13]
  glycan array binding signal (z-score): 0.004
[14]
  glycan array binding signal (z-score): -0.231
[15]
  glycan array binding signal (z-score): -0.218
[16]
  glycan array binding signal (z-score): -0.249
[17]
  glycan array binding signal (z-score): -0.163
[18]
  glycan array binding signal (z-score): -0.278
[19]
  glycan array binding signal (z-score): -0.155
[20]
  glycan array binding signal (z-score): -0.157
[21]
  glycan array binding signal (z-score): -2.14
[22]
  glycan array binding signal (z-score): -0.224
[23]
  glycan array binding signal (z-score): -0.265
[24]
  glycan array binding signal (z-score): -0.232
[25]
  glycan array binding signal (z-score): 0.024
[26]
  glycan array binding signal (z-score): -0.31
[27]
  glycan array binding signal (z-score): -0.201
[28]
  glycan array binding signal (z-score): -0.2
[29]
  glycan array binding signal (z-score): -0.186
[30]
  glycan array binding signal (z-score): -0.21
[31]
  glycan array binding signal (z-score): -0.288
[32]
  glycan array binding signal (z-score): -0.207
[33]
  glycan array binding signal (z-score): -0.082
[34]
  glycan array binding signal (z-score): -0.196
[35]
  glycan array binding signal (z-score): -0.165
[36]
  glycan array binding signal (z-score): -0.174
[37]
  glycan array binding signal (z-score): -0.198
